Measured values published in PubChem BioAssay AID588795 (National Center for Advancing Translational Sciences (NCATS), 2011).
The whole screen tested about 390,000 compounds, of which about 1,400 (0.36%) were called active. The shares of active, inactive and inconclusive entries below differ from those in the screen. Calls come from the whole dose curve; as a rule, active = well fitted inhibition curve with a large enough effect; inconclusive = small, poorly fitted or top-dose-only effect; inactive = no such curve, though single readings can be large or run the other way. Where the call is inconclusive, the potency comes from a doubtful curve fit.

Target: Flap endonuclease 1 (Homo sapiens) (UniProt P39748)
Assay: qHTS Assay for the Inhibitors of Human Flap endonuclease 1 (FEN1). Note: nearly all actives have a fitted effect of over 65% in size.
Settings: Recombinant FEN1 flap cleavage, fluorescence, 15 min; series mostly up to 114 µM
Procedure, shortened: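 Read-out was taken twice, immediately and after 15 min, following addition of 50 nM substrate to 10 nM FEN1 that had sat with test compound for 15 min at room temperature. Curves came from a four-parameter Hill model.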
Potency is the fitted concentration of half-maximal effect; tags give direction and shape of the fitted curve.

Sequence of UniProt P39748 (P39748 whole entry, looked up): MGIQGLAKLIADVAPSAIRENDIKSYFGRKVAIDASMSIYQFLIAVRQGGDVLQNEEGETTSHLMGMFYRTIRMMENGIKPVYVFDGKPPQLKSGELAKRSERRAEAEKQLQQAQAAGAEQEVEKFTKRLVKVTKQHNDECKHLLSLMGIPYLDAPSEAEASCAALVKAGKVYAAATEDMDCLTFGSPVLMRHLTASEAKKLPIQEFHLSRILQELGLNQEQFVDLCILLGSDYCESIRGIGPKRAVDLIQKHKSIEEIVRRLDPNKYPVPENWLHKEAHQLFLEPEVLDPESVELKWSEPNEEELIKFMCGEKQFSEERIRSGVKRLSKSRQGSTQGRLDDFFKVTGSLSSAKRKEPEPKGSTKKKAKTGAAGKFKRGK

Row | Structure (SMILES) | Potency
1 | COC(=O)c1sc(NC(=O)COc2cccnc2[N+](=O)[O-])c(C(=O)OC)c1C | inconclusive: 70.8 µM [inhibitor, single point]
2 | Cc1nn2c(=O)cc(COC(=O)c3ccccc3NC(=O)C(C)C)nc2s1 | inactive
3 | CCOc1ccc(-c2nnc3ccc(SCC(=O)Nc4nc5ccccc5s4)nn23)cc1 | inconclusive: 39.8 µM [inhibitor, single point]
4 | Cc1cc(C(F)(F)F)c2c(N)c(C(=O)Nc3c(Cl)cccc3Cl)sc2n1 | inconclusive: 56.2 µM [inhibitor, partial curve, poor fit]
5 | CC(C)n1ncc2c(C(=O)Nc3cccc(C#N)c3)cc(C3CC3)nc21 | inconclusive: 79.4 µM [inhibitor, partial curve, poor fit]
6 | Cc1ccccc1-c1nc(NC(=O)CSc2ncnc3sc4c(c23)CCCC4)ns1 | inconclusive: 3.16 µM [inhibitor, full curve, poor fit]
7 | Cc1cccc(N2CCN(C(c3ccc(F)cc3)c3nnc(-c4ccccc4)o3)CC2)c1C (stereo not drawn) | inactive
8 | COC(=O)c1c(C)[nH]c(O)c1C=Nc1ccc(C#N)cc1 | inconclusive: 89.1 µM [inhibitor, partial curve, poor fit]
9 | O=[N+]([O-])c1ccc(NC(=S)NCCc2ccc(F)cc2)cc1 | inconclusive: 50.1 µM [inhibitor, partial curve, poor fit]
10 | Cc1ccc(C)c(NC(=O)COC(=O)CC2CC3CCC2C3)c1 (stereo not drawn) | inconclusive: 79.4 µM [inhibitor, partial curve, poor fit]
11 | CN(C)c1nc(-c2ccccc2)cc(C(F)(F)F)c1C#N | inactive
12 | CN1CCN(c2cc(N3CCN(C(=O)c4ccco4)CC3)c3c4c(onc24)-c2ccccc2C3=O)CC1 | inconclusive: 44.7 µM [inhibitor, partial curve, poor fit]
13 | CC(=O)c1cccc(Nc2ncnc3c2cnn3-c2cccc(Cl)c2)c1 | inactive
14 | COC(=O)c1c(NC(=O)c2c(OC)cccc2OC)sc2c1CCCC2 | inconclusive: 100 µM [inhibitor, partial curve, poor fit]
15 | CC(=O)Nc1ccc(S(=O)(=O)NCc2ccc3c(c2)cc(C)n3C)cc1 | inconclusive: 89.1 µM [inhibitor, single point]
16 | O=C(NCc1ccccc1)C1=C[C@@H](c2ccc3c(c2)OCO3)C[C@@H](OCCCCO)O1 | inactive
17 | CC(C(=O)N1CCCCC1)N(C)CC(=O)Nc1ccc(Cl)cc1 (stereo not drawn) | inconclusive: 89.1 µM [inhibitor, single point]
18 | Cc1ccc(N2C3=C(C(=O)CC(C)(C)C3)C(c3cn(C)nc3C)C3=C2CC(C)(C)CC3=O)cc1 | inconclusive: 89.1 µM [inhibitor, single point]
